Data: paper PMC4336329 (PLoS ONE, 2015)
The campaign covered roughly 310,000 compounds. About 14,000 (4.5%) showed an effect of 50% or more. Effects have a minus sign here. This is one part of the list.

Each compound was assayed against human ether-à-go-go-related gene (hERG) potassium channel (human, UniProt Q12809) (assay: primary screen, population patch clamp on CHO cells stably expressing hERG).
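Further: peak tail current of the secondary pulse compared with the same well before compound.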

Chain of human ether-à-go-go-related gene (hERG) potassium channel (Q12809 whole entry, looked up): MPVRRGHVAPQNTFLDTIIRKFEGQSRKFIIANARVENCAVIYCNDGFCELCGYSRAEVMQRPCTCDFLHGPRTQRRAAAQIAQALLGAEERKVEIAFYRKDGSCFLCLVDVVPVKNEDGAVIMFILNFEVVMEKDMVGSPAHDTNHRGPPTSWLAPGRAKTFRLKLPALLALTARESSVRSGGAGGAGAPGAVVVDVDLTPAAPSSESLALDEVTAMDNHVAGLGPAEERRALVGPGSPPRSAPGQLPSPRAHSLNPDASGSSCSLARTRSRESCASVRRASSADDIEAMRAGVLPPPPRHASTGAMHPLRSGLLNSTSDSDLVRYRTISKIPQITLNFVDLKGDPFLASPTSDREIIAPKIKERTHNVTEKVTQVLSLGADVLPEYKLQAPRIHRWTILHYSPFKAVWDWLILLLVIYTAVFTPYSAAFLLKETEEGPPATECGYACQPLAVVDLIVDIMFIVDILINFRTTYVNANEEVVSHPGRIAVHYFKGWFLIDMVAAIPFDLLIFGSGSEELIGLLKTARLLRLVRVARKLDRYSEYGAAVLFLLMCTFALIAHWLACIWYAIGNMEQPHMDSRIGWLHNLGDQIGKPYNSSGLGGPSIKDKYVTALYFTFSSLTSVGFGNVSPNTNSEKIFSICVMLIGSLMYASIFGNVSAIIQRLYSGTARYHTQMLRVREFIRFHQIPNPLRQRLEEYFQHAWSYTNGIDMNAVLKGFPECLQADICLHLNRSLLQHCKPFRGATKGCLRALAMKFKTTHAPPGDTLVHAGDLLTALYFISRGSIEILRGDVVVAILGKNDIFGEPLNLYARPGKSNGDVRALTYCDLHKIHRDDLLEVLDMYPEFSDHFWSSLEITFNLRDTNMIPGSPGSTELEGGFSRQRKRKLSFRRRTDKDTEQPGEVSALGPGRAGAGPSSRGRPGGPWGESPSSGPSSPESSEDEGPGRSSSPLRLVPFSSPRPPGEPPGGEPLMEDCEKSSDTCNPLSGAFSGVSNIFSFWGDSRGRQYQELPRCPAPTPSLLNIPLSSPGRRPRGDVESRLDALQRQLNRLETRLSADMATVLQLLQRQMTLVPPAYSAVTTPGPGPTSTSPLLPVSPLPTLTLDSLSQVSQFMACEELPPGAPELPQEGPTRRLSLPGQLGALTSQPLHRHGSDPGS

| SMILES | hERG current change (%, negative = inhibition) at 10uM |
| --- | --- |
| COC(=O)c1c(NC(=O)c2cccc([N+](=O)[O-])c2)sc(C(N)=O)c1C | 5.18% |
| O=S(=O)(c1ccccc1F)N1CCCc2ccccc21 | -11.7% |
| O=C(NC(=S)Nc1ccccc1N1CCOCC1)c1ccc(Br)cc1 | 8.98% |
| COCCNC(=S)NNC(=O)c1cc(C2CC2)nc2ccccc12 | 21.9% |
| Cc1ccc(CN(Cc2ccco2)C(=S)Nc2ccccc2C)cc1 | 18.7% |
| CNC(=O)NC(=O)C(C)OC(=O)c1c2c(nc3ccccc13)/C(=C/c1cccs1)CC2 (stereo not shown) | 12.8% |
| COc1cc(CN2CCCN(C)CC2)c([N+](=O)[O-])cc1OC | -8.47% |
| Cn1c(C(O)c2ccccc2F)nc(Cl)c1Cl (stereo not shown) | 2.97% |
| CC(=O)NNS(=O)(=O)c1ccccc1[N+](=O)[O-] | 4.19% |
| C/C=C/Cn1c(SC)nc2c1c(=O)[nH]c(=O)n2C | -10.1% |
| Cn1nc(NC(=O)C(F)(F)F)c2ncc(-c3ccc(Cl)cc3)nc21 | 18.5% |
| O=C(NCC(c1cccs1)N1CCOCC1)c1cccnc1 (stereo not shown) | -5.14% |
| COc1ccc(CC(=O)N2CC(C)CC(C)C2)cc1OC (stereo not shown) | 5.21% |
| Cc1nc2c(ccc3nc(NC(=O)c4ccc5c(c4)OCCO5)sc32)s1 | -74.3% |
| N#CC(C#N)=C1C(=O)N(CCN2CCOCC2)c2ccccc21 | 10.4% |
| CC(=O)Nc1ccc(S(=O)(=O)N(C#N)c2nc(N(C)C)nc(N(C)C)n2)cc1 | 10.4% |
| COc1cc2c3c(c1OC)C1(C=CC(=NNC(N)=O)C=C1)CC3N(C(C)=O)CC2 (stereo not shown) | -3.79% |
| COc1ccc(NC(=S)NC2CCCCCC2)c(OC)c1 | 4.68% |
| Cc1occc1C(=O)NNC(=O)COc1ccc(Br)cc1Br | 2.94% |
| CCC(CC)C(=O)Oc1c(Sc2ccccc2[N+](=O)[O-])c(C)nn1C(C)(C)C | 13% |
| O=[N+]([O-])c1ccc(/C=C/c2ccncc2)cc1 | -25.7% |
| C=CCC1(CC=C)CCCN1C(=O)c1cc(COc2ccccc2SC)on1 | -1.98% |

| SMILES | hERG current change (%, negative = inhibition) at 10uM |
| --- | --- |
| CCOC(=O)/C(C#N)=C\c1c(C)cc(C)c(COC(C)=O)c1C | 9.76% |
| CC(CC(=O)O)CC(=O)Nc1ccccc1C(=O)O (stereo not shown) | -28.3% |
| ClC(Cl)(Cl)c1ccccc1 | 10.1% |
| COc1ccccc1N(Cc1ccccc1)S(=O)(=O)c1cccc(C(=O)NC2CC(C)(C)NC(C)(C)C2)c1 | -73.4% |
| CC1=CC(=O)C(C(C)C)=C/C1=N/OS(=O)(=O)c1ccccc1 | 6.9% |
| CSc1nc2n(n1)C(c1cc(Br)ccc1F)C(C(=O)N(C)C)=C(C)N2 (stereo not shown) | -6.95% |
| CCc1csc(CCNC(=O)C2CCC(=O)N(Cc3ccccc3F)C2)n1 (stereo not shown) | -3.32% |
| CCCCOC(=O)C1=C(C)Nc2ncnn2C1c1cccc(OC)c1 (stereo not shown) | -6.92% |
| COC(=O)C(CCSC)NC(=O)C(NC(=O)C1CCC(C)CC1)C(C)C (stereo not shown) | 3.33% |
| COCC(=O)Nc1cc(C(=O)Nc2ccccc2)ccc1Cl | -5.75% |
| O=S(=O)(c1ccc2c(c1)CCCN2)N1CCCCC1 | -11.9% |
| CC(Sc1nncs1)C(=O)Nc1ccc(Cl)cn1 (stereo not shown) | 0.601% |
| Cc1nnc(SCc2nnc(-c3cccs3)o2)s1 | 1.39% |
| Cc1ccc2c(CSc3nnc4ccccn34)cc(=O)oc2c1C | -16% |
| COc1ccc(C2Nc3ccccc3C(=O)N2c2ccc(C)cc2)cc1Cn1nc(C)c([N+](=O)[O-])c1C (stereo not shown) | 2.25% |
| COc1c(Cl)cc(-c2noc(C)c2C(=O)NCCc2ccc(C)cc2)cc1Cl | -0.305% |
| CC1CN(S(=O)(=O)c2cccc(C(=O)OCC(=O)Nc3ccc4c(c3)OCO4)c2)CC(C)O1 (stereo not shown) | -8.93% |
| CC(OC(=O)Cc1n[nH]c(=O)c2ccccc12)C(=O)Nc1ccc(F)cc1Cl (stereo not shown) | 2.32% |
| CN(Cc1ccc(C(C)(C)C)cc1)C(=O)c1ccc2c(=O)n3c(nc2c1)CCC3 | -47.8% |
| c1ccc2c3n(nc2c1)CCCCO3 | 8.27% |
| CCCc1nc(SCc2ccccc2Cl)n[nH]1 | 10.7% |
| COC(=O)Cc1c(C)c2ccc(OC3CCCCC3=O)cc2oc1=O (stereo not shown) | 6.98% |

| SMILES | hERG current change (%, negative = inhibition) at 10uM |
| --- | --- |
| COC(C(=O)Nc1ccnn1C1CCN(Cc2cnn(C)c2)CC1)c1ccccc1 (stereo not shown) | 6% |
| NC(=O)[C@H]1CC2(CC(c3cccc(NC(=O)CC(c4ccccc4)c4ccccc4)c3)=NO2)CN1C(=O)c1ccccc1C(=O)c1ccccc1 (stereo partly shown) | 4.03% |
| Cc1cc(C)nc(SC(C(=O)O)c2ccccc2)n1 (stereo not shown) | 17.9% |
| CCOC(=O)Cn1cc(C#N)c2ccccc21 | 15.1% |
| COc1ccc(-c2nnc(C)c3nocc23)cc1 | 9.28% |
| Cc1cccn2c(=O)c3cc(C(=O)NC4CCCC4)c(=N)n(CC4CCCO4)c3nc12 (stereo not shown) | -74.4% |
| Cc1cccnc1NC(=O)c1ccc2c(c1)OCO2 | 1.4% |
| Cn1c(=O)[nH]c(Nc2ccccc2)c([N+](=O)[O-])c1=O | 15.4% |
| COC(=O)c1ccc(C23CC4(C2)[C@H](CN(Cc2ccc(-c5ccccc5)cc2)[C@@H]4c2ccccc2)C3c2ccc(C(F)(F)F)cc2)cc1 (stereo partly shown) | 1.21% |
| COc1ccc(-c2csc(C)n2)cc1 | -0.124% |
| Cc1ccccc1N1CCN(C2CCCN(C(=O)c3ocnc3C)C2)CC1 (stereo not shown) | -16.9% |
| COc1cccc2oc3ccc(C#Cc4ccccn4)cc3c(=O)c12 | 13.6% |
| Cc1ccc(C)c(C(=O)NC(C)c2ccc(-n3ccnc3)cc2)c1 (stereo not shown) | -62.4% |
| O=C(NC(NC1CCS(=O)(=O)C1)C(Cl)(Cl)Cl)c1cccc(Cl)c1 (stereo not shown) | -7.37% |
| CCc1cccc(CC)c1NC(=O)CSc1nc2ccc(N3C(=O)C4C(C3=O)[C@H]3C=C[C@@H]4C3)cc2s1 (stereo partly shown) | 3.84% |
| O=C(O)c1cccc(OS(=O)(=O)c2cc(Br)ccc2Br)c1 | -9.65% |
| COc1ccc(C(=O)COC(=O)c2cc(S(=O)(=O)N3CCCCC3)ccc2N2CCOCC2)c(OC)c1 | -12.7% |
| COc1ccc(Nc2oc(COc3ccc(Cl)cc3)nc2C#N)cc1 | 11.1% |
| CN1CCN(NC(=O)c2cccc3ccccc23)CC1 | 4.95% |
| COc1ccc(C2CC(c3cccs3)=NN2S(C)(=O)=O)cc1 (stereo not shown) | -2.74% |
| NNC(=O)CCc1nc2ccc(O)cc2[nH]1 | 18.1% |
| O=C(COC(=O)[C@@H]1CCCN1C(=O)c1cccs1)NCCc1ccccc1 | -7.49% |

| SMILES | hERG current change (%, negative = inhibition) at 10uM |
| --- | --- |
| N/C(CSc1ccc(Cl)cc1)=N\S(=O)(=O)c1ccc(Cl)cc1 | 5.61% |
| Cc1ccc(S(=O)(=O)NCC(=O)OCC(=O)c2ccc(Br)s2)cc1 | -52.7% |
| COCc1cc(C)n(CC(=O)NCc2ccccc2)c(=O)c1C#N | 18% |
| COc1ccc(C(=O)N2CCSC2=S)cc1OC | -9.03% |
| CCOC(=O)CSc1nnnn1-c1cc(OC)c(Cl)cc1OC | -0.709% |
| CN(C)c1oc(/C=C/c2ccccc2)nc1C#N | 8.93% |
| O=C(CSc1nccn1-c1cccc(Cl)c1)NO | 0.366% |
| C=CCc1c(C)nc(-c2ccccc2)nc1Nc1ccc(O)cc1 | -18.7% |
| CC(Oc1ccccc1)C(=O)N1CCN(c2ccc(N3CCOCC3)nn2)CC1 (stereo not shown) | -3.79% |
| CN1CCN(S(=O)(=O)c2ccc(NC(=O)c3ccc(F)cc3Cl)cc2)CC1 | 3.16% |
| CCOc1ccccc1C(=O)N/N=C/c1coc2ccc(C)cc2c1=O | 5.93% |
| COc1ccccc1N1CCN(C(=O)CSc2nc(-c3ccco3)cc(C(F)(F)F)n2)CC1 | -18.4% |
| CCOc1ccc(N=Cc2c(O)n(CCc3ccc(OC)c(OC)c3)c(=O)[nH]c2=O)cc1 | 11.1% |
| COCCC(=O)N1CCC(Oc2ccc(C(=O)NCCc3ccccn3)cc2)CC1 | 24.2% |
| CCC(Oc1ccccc1)C(=O)N(Cc1ccccc1)c1ccccn1 (stereo not shown) | -6.96% |
| COc1ccccc1CNC(=O)c1oc2ccc(S(=O)(=O)N3CCCC3)cc2c1C | -4.46% |
| O=C(CCNS(=O)(=O)c1cccc(Cl)c1)OCC(=O)N1CCN(C(=O)c2ccco2)CC1 | -43.5% |
| Cc1ccc(NC(=O)c2oc3ccc(S(=O)(=O)N4CCOCC4)cc3c2C)cc1C | -9.23% |
| CSc1c(-c2ccccn2)c(N)nn1C(=O)C1CCC1 | 1.65% |
| COc1ccc(C2C3=C(CC(C)(C)CC3=O)Oc3ncn(Cc4ccco4)c(=N)c32)cc1 (stereo not shown) | -68.3% |
| CC(=O)C1=NN(c2ccc(Cl)cc2)C(c2ccc3c(c2)OCO3)N(C(C)=O)N1C (stereo not shown) | -1.98% |
| COc1cccc(N2CCN(c3c4c(nc5ncnn35)CCC4)CC2)c1 | -30.6% |
